# Test results taken from the supplement of paper PMC3334620.
# In all, about 33,000 sequences were measured (“E-score (-0.5 to 0.5)”: median about -0.043, highest 2% from about 0.37 on). The list shows a part of the results.
# Target: T1, Upc2 (UniProt Q12151)
# T1 sequence: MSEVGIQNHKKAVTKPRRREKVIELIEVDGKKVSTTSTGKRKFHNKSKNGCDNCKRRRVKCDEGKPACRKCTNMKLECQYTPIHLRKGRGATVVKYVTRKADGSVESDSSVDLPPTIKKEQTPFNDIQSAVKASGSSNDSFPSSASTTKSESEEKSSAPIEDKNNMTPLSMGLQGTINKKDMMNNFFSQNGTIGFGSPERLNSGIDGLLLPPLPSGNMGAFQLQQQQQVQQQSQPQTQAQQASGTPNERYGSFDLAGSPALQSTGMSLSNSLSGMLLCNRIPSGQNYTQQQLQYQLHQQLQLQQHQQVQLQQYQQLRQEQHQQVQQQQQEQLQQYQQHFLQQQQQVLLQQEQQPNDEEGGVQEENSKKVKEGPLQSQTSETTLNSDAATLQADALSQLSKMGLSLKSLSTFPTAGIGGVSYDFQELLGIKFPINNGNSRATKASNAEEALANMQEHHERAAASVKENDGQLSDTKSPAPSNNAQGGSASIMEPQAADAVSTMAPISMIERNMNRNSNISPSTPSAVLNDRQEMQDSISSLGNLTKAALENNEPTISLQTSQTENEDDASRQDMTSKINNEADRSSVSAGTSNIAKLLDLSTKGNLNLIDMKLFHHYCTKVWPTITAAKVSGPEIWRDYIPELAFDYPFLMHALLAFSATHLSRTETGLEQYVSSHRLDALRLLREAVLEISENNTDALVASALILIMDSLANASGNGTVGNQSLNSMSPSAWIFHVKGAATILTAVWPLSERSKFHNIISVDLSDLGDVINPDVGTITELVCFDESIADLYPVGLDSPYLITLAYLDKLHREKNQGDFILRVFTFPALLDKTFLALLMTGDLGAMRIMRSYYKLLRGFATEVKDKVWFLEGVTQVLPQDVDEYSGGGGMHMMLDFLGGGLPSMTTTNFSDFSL
# Test: PBM E-score (8-mer binding enrichment) (E-score (-0.5 to 0.5)); higher = stronger / more preferred TF binding; most listed sequences are background and not binding sites
# Conditions: protein concentration: 200 nM; construct: GST-full length
# Method in brief: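 PURExpress in vitro transcription/translation supplied GST-tagged yeast transcription factors, either full-length or DNA-binding domain. Applied at about 100-200 nM to universal all-10-mer Agilent arrays double-stranded by primer extension, the bound protein was detected with fluorescent anti-GST. E-scores, modified Wilcoxon-Mann-Whitney statistics, were given by the Universal PBM Analysis Suite to ungapped eight-base words pooled with their reverse complements after masliner normalisation.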
row,Sequence,PBM E-score
1,CCCTGCAG,-0.163
2,CCTTCACG,0.0487
3,GGCCAAGA,-0.29
4,CGTGAGAG,-0.333
5,CCAAAGTC,-0.225
6,ATGTGTCC,-0.136
7,GGCTGGAA,-0.231
8,CGTTTTGC,0.144
9,ACGAGTTG,0.354
10,ACGCGTTA,0.14
11,GTTTATCA,0.197
12,AGAGACTG,-0.131
13,AGTTAGAT,-0.207
14,ATCACCGC,0.0954
15,ACCGAGCA,0.16
16,ACTCGCCA,-0.0888
17,GGAATGCA,-0.0265
18,CTTAGAAA,-0.115
19,CTGCTCGC,0.0814
20,CTGGATAC,0.145
21,CGCGCGGA,0.0555
22,CTCGCCTC,-0.219
23,AACCTCGG,0.0542
24,GGTTAGAC,-0.124
25,GGGCGAAA,-0.0449

row,Sequence,PBM E-score
1,ATTCTGCC,-0.241
2,CAGAGACC,-0.16
3,AATAGAAG,-0.0451
4,TAGCAGGA,-0.26
5,AAGTTCTG,-0.106
6,ACGTAATA,0.146
7,GGCCCTTA,-0.0472
8,ATTATAGA,0.0585
9,CACTTAGG,-0.0903
10,CGGTTACG,0.34
11,CTCTTCGC,-0.12
12,CAGGGGAG,-0.215
13,AGGGTTCC,-0.109
14,ACAATAAC,-0.0383
15,CCGGCGAC,-0.211
16,GCAACTCA,-0.0869
17,CTACCCAG,-0.184
18,CCGCATCC,-0.0625
19,TAGCCTGA,-0.0528
20,CTGAAGCA,-0.189
21,ACAAAAGG,-0.00334
22,ACTAGAAC,0.0839
23,ACTTGCCA,-0.165
24,CTCATAGC,-0.119
25,AGGGGGAT,-0.156

row,Sequence,PBM E-score
1,GAATTTTA,0.0127
2,ATGTGAGG,-0.0218
3,CCACAGAA,0.0391
4,GAAAACGC,0.0704
5,ATTGGGTA,-0.00791
6,AATCGCAC,0.00377
7,AACACGAT,0.0205
8,ATTTATTC,0.107
9,GGTACATA,-0.0297
10,GATCGATA,0.0839
11,AGAGTCAT,-0.205
12,GCGCGTTA,0.191
13,AGCGTCAA,-0.111
14,ATTGACGC,-0.125
15,ACTTCGAA,0.132
16,ACCCCCAC,-0.367
17,TAAGGGGA,-0.157
18,ATAACAAT,-0.126
19,ATCATCGG,-0.104
20,AAGGACCA,-0.0722
21,ATATCGCA,-0.0659
22,AGCGGGAT,-0.032
23,CAGTATCC,-0.0132
24,CGGATAAC,0.0993
25,GAACCGAC,0.234

row,Sequence,PBM E-score
1,GGGCGCAC,-0.173
2,CTCCCTAC,-0.13
3,CGTGGTCA,-0.227
4,ATAAAATG,0.0962
5,AATATTAC,0.192
6,ACTCTGGC,-0.202
7,GGAGACTA,-0.181
8,ATTTCATG,-0.244
9,GATATGGC,-0.305
10,CCGGGAGG,-0.261
11,CGAAATGA,0.1
12,CAGAAGGC,-0.152
13,CTGTTGGA,-0.173
14,AGACAGAA,0.0179
15,ATTGAGTA,0.0353
16,GGAAGAGA,-0.194
17,CCGCCAGC,-0.228
18,GAACGTCA,-0.137
19,CGGTATTA,-0.0185
20,ACAGATGG,-0.274
21,AGGATGAC,-0.0854
22,ATGGTCGA,0.0473
23,ACACGTGT,0.188
24,TACACTAA,-0.033
25,ACATCACG,0.0904

row,Sequence,PBM E-score
1,ACCGCCCC,0.156
2,ATGAGATG,-0.243
3,CCCCGCTC,-0.142
4,ACGGTCCA,0.0906
5,CGATCAAC,0.194
6,GCTATATA,0.0781
7,GTCTGCAC,-0.298
8,AGCTTAAG,-0.141
9,AAAGAGCC,-0.135
10,ATGGCCTG,-0.376
11,CTTTGCTC,-0.0159
12,TAGCTGAA,0.0815
13,CAGTCCTA,-0.227
14,CAGCGATG,-0.138
15,GAGTTGAC,0.0207
16,GAGCCAAC,-0.0768
17,ACCGGACT,-0.059
18,AACTAGGC,-0.0956
19,CGCTTCCG,0.132
20,AGTTCCCG,0.0353
21,AGCAAGAA,-0.16
22,GGGTTTGA,0.0184
23,ATTTCGGA,0.0761
24,GTGTGTCA,0.0729
25,GGACACGA,0.106

row,Sequence,PBM E-score
1,CATCAGAA,-0.0155
2,GAAACCCC,-0.198
3,AGGGCTGC,-0.205
4,CGACAACG,0.272
5,AACTGCGG,-0.016
6,ATTAACGA,0.424
7,AATAGAGG,-0.0358
8,CCGCCGAG,-0.0609
9,ATCTTACG,0.287
10,AAGTTTGG,0.00199
11,CTGGAGGC,-0.31
12,AGTTTATC,0.115
13,CTTTGCCA,-0.0739
14,ATTGCGGC,-0.13
15,ATTATCTG,-0.0234
16,ACCGCAAA,0.134
17,ATTCGGGA,-0.048
18,CCATCGTA,0.44
19,AATTCTTA,0.0248
20,CCCGGGAA,0.0107
21,GACAGACA,0.0541
22,AACATGTC,0.0334
23,CCGTCCGA,-0.162
24,ACACGTCC,-0.166
25,CATTGACG,0.00015

row,Sequence,PBM E-score
1,CCGTAGCA,0.0702
2,GAACGAAA,0.416
3,AGGTTAAC,0.11
4,CCAGTGGG,-0.282
5,GGTACTTA,-0.191
6,ACCTTTGC,-0.0579
7,ATAGAGTC,-0.0367
8,AAATCGCT,0.033
9,CAGTAGCC,-0.159
10,AAGATCGC,0.148
11,CCGGGAAG,-0.202
12,AGAGTATG,-0.00032
13,CGATACAG,0.0338
14,CCAATTTC,-0.019
15,AGGTGCAA,-0.111
16,GTCGAGAA,-0.0479
17,GGAAATCA,0.0219
18,CCCCAAAG,-0.154
19,ATGGACAG,-0.334
20,ATATCTCC,-0.103
21,GTGAAGAA,0.0736
22,AGACCAAT,-0.0887
